# Source: the supplement of paper PMC8728848
# Some of the results follow.
# B1: DC-ASPGR (Homo sapiens), CLC10_HUMAN (protein)
# chain: LDQNSKFQRDLVTLRTDFSNFTSNTVAEIQALTSQGSSLEETIASLKAEVEGFKQERQAVHSEMLLRVQQLVQDLKKLTCQVATLNNNASTEGTCCPVNWVEHQDSCYWFSHSGMSWAEAEKYCQLKNAHLVVINSREEQNFVQKYLGSAYTWMGLSDPEGAWKWVDGTDYATGFQNWKPGQPDDWQGHGLGGGEDCAHFHPDGRWNDDVCQRPYHWVCEAGLGQTSQESHVEPKSCDKTHTCPPCPAPELLGGPSVFLFPPKPKDTLMISRTPEVTCVVVDVSHEDPEVKFNWYVDGVEVHNAKTKPREEQFNSTYRVVSVLTVLHQDWLNGKEYKCKVSNKGLPSSIEKTISKAKGQPREPQVYTLPPSQEEMTKNQVSLTCLVKGFYPSDIAVEWESNGQPENNYKTTPPVLDSDGSFFLYSRLTVDKSRWQEGNVFSCSVMHEALHNHYTQK
# Experiments:
# Assay in all cases: glycan array binding signal (z-score within array); higher = stronger binding
# Details in all cases: glycan notation: IUPAC condensed, linker removed
# [1] = target: Gal(b1-3)Gal
# Procedure, shortened: (§1)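 The binding signal is a Z-score computed within each array and averaged over linkers. Arrays of the same protein sequence at different concentrations or buffers were also averaged together. Data originate from 3228 arrays in the Consortium for Functional Glycomics database, kept only where the protein sequence was available.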
# [2] = target: Gal(b1-3)Gal(b1-4)GlcNAc
# Procedure, shortened: as §1
# [3] = target: Gal(b1-3)Gal(b1-4)GlcNAc(b1-2)Man(a1-3)[Gal(b1-3)Gal(b1-4)GlcNAc(b1-2)Man(a1-6)]Man(b1-4)GlcNAc(b1-4)GlcNAc
# Procedure, shortened: as §1
# [4] = target: Gal(b1-3)GalNAc
# Procedure, shortened: as §1
# [5] = target: Gal(b1-3)GalNAc(a1-3)[Fuc(a1-2)]Gal(b1-4)Glc
# Procedure, shortened: as §1
# [6] = target: Gal(b1-3)GalNAc(a1-3)[Fuc(a1-2)]Gal(b1-4)GlcNAc
# Procedure, shortened: as §1
# [7] = target: Gal(b1-3)GalNAc(b1-3)Gal(a1-4)Gal(b1-4)Glc
# Procedure, shortened: as §1
# [8] = target: Gal(b1-3)GalNAc(b1-4)Gal(b1-4)Glc
# Procedure, shortened: as §1
# [9] = target: Gal(b1-3)GalNAc(b1-4)[Neu5Ac(a2-3)]Gal(b1-4)Glc
# Procedure, shortened: as §1
# [10] = target: Gal(b1-3)GlcNAc
# Procedure, shortened: as §1
# [11] = target: Gal(b1-3)GlcNAc(b1-2)Man(a1-3)[Gal(b1-3)GlcNAc(b1-2)Man(a1-6)]Man(b1-4)GlcNAc(b1-4)GlcNAc
# Procedure, shortened: as §1
# [12] = target: Gal(b1-3)GlcNAc(b1-2)Man(a1-3)[Gal(b1-3)GlcNAc(b1-2)Man(a1-6)]Man(b1-4)GlcNAc(b1-4)[Fuc(a1-6)]GlcNAc
# Procedure, shortened: as §1
# [13] = target: Gal(b1-3)GlcNAc(b1-3)Gal(b1-3)GlcNAc
# Procedure, shortened: as §1
# [14] = target: Gal(b1-3)GlcNAc(b1-3)Gal(b1-4)Glc
# Procedure, shortened: as §1
# [15] = target: Gal(b1-3)GlcNAc(b1-3)Gal(b1-4)GlcNAc
# Procedure, shortened: as §1
# [16] = target: Gal(b1-3)[Fuc(a1-4)]GlcNAc
# Procedure, shortened: as §1
# [17] = target: Gal(b1-3)[Fuc(a1-4)]GlcNAc(b1-2)Man(a1-3)[Gal(b1-3)[Fuc(a1-4)]GlcNAc(b1-2)Man(a1-6)]Man(b1-4)GlcNAc(b1-4)GlcNAc
# Procedure, shortened: as §1
# [18] = target: Gal(b1-3)[Fuc(a1-4)]GlcNAc(b1-2)Man(a1-3)[Gal(b1-3)[Fuc(a1-4)]GlcNAc(b1-2)Man(a1-6)]Man(b1-4)GlcNAc(b1-4)[Fuc(a1-6)]GlcNAc
# Procedure, shortened: as §1
# [19] = target: Gal(b1-3)[Fuc(a1-4)]GlcNAc(b1-3)Gal(b1-3)[Fuc(a1-4)]GlcNAc
# Procedure, shortened: as §1
# [20] = target: Gal(b1-3)[Fuc(a1-4)]GlcNAc(b1-3)Gal(b1-4)GlcNAc
# Procedure, shortened: as §1
# [21] = target: Gal(b1-3)[Fuc(a1-4)]GlcNAc(b1-3)Gal(b1-4)[Fuc(a1-3)]GlcNAc
# Procedure, shortened: as §1
# [22] = target: Gal(b1-3)[GlcNAc(b1-6)]GalNAc
# Procedure, shortened: as §1
# [23] = target: Gal(b1-3)[Neu5Ac(a2-6)]GalNAc
# Procedure, shortened: as §1
# [24] = target: Gal(b1-3)[Neu5Ac(a2-6)]GlcNAc(b1-6)Gal(b1-4)Glc
# Procedure, shortened: as §1
# [25] = target: Gal(b1-3)[Neu5Ac(b2-6)]GalNAc
# Procedure, shortened: as §1
# [26] = target: Gal(b1-4)GalNAc(a1-3)[Fuc(a1-2)]Gal(b1-4)GlcNAc
# Procedure, shortened: as §1
# [27] = target: Gal(b1-4)GalNAc(b1-3)[Fuc(a1-2)]Gal(b1-4)GlcNAc
# Procedure, shortened: as §1
# [28] = target: Gal(b1-4)Glc
# Procedure, shortened: as §1
# [29] = target: Gal(b1-4)Glc6S
# Procedure, shortened: as §1
# [30] = target: Gal(b1-4)GlcNAc
# Procedure, shortened: as §1
# [31] = target: Gal(b1-4)GlcNAc(a1-6)Gal(b1-4)GlcNAc
# Procedure, shortened: as §1
# [32] = target: Gal(b1-4)GlcNAc(b1-2)Man(a1-3)Man(b1-4)GlcNAc(b1-4)GlcNAc
# Procedure, shortened: as §1
# [33] = target: Gal(b1-4)GlcNAc(b1-2)Man(a1-3)[Gal(b1-4)GlcNAc(b1-2)Man(a1-6)]Man(b1-4)GlcNAc(b1-4)GlcNAc
# Procedure, shortened: as §1
# [34] = target: Gal(b1-4)GlcNAc(b1-2)Man(a1-3)[Gal(b1-4)GlcNAc(b1-2)Man(a1-6)]Man(b1-4)GlcNAc(b1-4)[Fuc(a1-6)]GlcNAc
# Procedure, shortened: as §1
# [35] = target: Gal(b1-4)GlcNAc(b1-2)Man(a1-3)[Man(a1-6)]Man(b1-4)GlcNAc(b1-4)GlcNAc
# Procedure, shortened: as §1
# [36] = target: Gal(b1-4)GlcNAc(b1-2)Man(a1-6)Man(b1-4)GlcNAc(b1-4)GlcNAc
# Procedure, shortened: as §1
# [37] = target: Gal(b1-4)GlcNAc(b1-2)Man(a1-6)[Man(a1-3)]Man(b1-4)GlcNAc(b1-4)GlcNAc
# Procedure, shortened: as §1
# [38] = target: Gal(b1-4)GlcNAc(b1-2)[Gal(b1-4)GlcNAc(b1-4)]Man(a1-3)[Gal(b1-4)GlcNAc(b1-2)Man(a1-6)]Man(b1-4)GlcNAc(b1-4)GlcNAc
# Procedure, shortened: as §1
# [39] = target: Gal(b1-4)GlcNAc(b1-3)Gal(b1-3)GlcNAc
# Procedure, shortened: as §1
# [40] = target: Gal(b1-4)GlcNAc(b1-3)Gal(b1-4)Glc
# Procedure, shortened: as §1
# [41] = target: Gal(b1-4)GlcNAc(b1-3)Gal(b1-4)GlcNAc
# Procedure, shortened: as §1
# [42] = target: Gal(b1-4)GlcNAc(b1-3)Gal(b1-4)GlcNAc(b1-3)Gal(b1-4)GlcNAc
# Procedure, shortened: as §1
# [43] = target: Gal(b1-4)GlcNAc(b1-3)Gal(b1-4)[Fuc(a1-3)]GlcNAc(b1-3)Gal(b1-4)[Fuc(a1-3)]GlcNAc
# Procedure, shortened: as §1
# [44] = target: Gal(b1-4)GlcNAc(b1-3)GalNAc
# Procedure, shortened: as §1
# [45] = target: Gal(b1-4)GlcNAc(b1-3)[Gal(b1-4)GlcNAc(b1-6)]Gal(b1-4)GlcNAc
# Procedure, shortened: as §1
binder,measurement,setting,value
B1,glycan array binding signal (z-score),[1],-0.213
same,glycan array binding signal (z-score),[2],-0.145
same,glycan array binding signal (z-score),[3],-0.216
same,glycan array binding signal (z-score),[4],-0.252
same,glycan array binding signal (z-score),[5],-0.082
same,glycan array binding signal (z-score),[6],-0.014
same,glycan array binding signal (z-score),[7],0.292
same,glycan array binding signal (z-score),[8],-0.168
same,glycan array binding signal (z-score),[9],1.09
same,glycan array binding signal (z-score),[10],-0.177
same,glycan array binding signal (z-score),[11],-0.062
same,glycan array binding signal (z-score),[12],-0.221
same,glycan array binding signal (z-score),[13],-0.275
same,glycan array binding signal (z-score),[14],-0.21
same,glycan array binding signal (z-score),[15],-0.285
same,glycan array binding signal (z-score),[16],-0.199
same,glycan array binding signal (z-score),[17],0.17
same,glycan array binding signal (z-score),[18],-0.15
same,glycan array binding signal (z-score),[19],-0.187
same,glycan array binding signal (z-score),[20],-0.19
same,glycan array binding signal (z-score),[21],-0.199
same,glycan array binding signal (z-score),[22],-0.204
same,glycan array binding signal (z-score),[23],-0.118
same,glycan array binding signal (z-score),[24],-0.087
same,glycan array binding signal (z-score),[25],-0.25
same,glycan array binding signal (z-score),[26],-0.198
same,glycan array binding signal (z-score),[27],-0.278
same,glycan array binding signal (z-score),[28],-0.238
same,glycan array binding signal (z-score),[29],-0.228
same,glycan array binding signal (z-score),[30],-0.253
same,glycan array binding signal (z-score),[31],-0.281
same,glycan array binding signal (z-score),[32],-0.268
same,glycan array binding signal (z-score),[33],-0.177
same,glycan array binding signal (z-score),[34],-0.232
same,glycan array binding signal (z-score),[35],-0.194
same,glycan array binding signal (z-score),[36],-0.192
same,glycan array binding signal (z-score),[37],-0.175
same,glycan array binding signal (z-score),[38],-0.101
same,glycan array binding signal (z-score),[39],-0.195
same,glycan array binding signal (z-score),[40],-0.176
same,glycan array binding signal (z-score),[41],-0.065
same,glycan array binding signal (z-score),[42],-0.217
same,glycan array binding signal (z-score),[43],-0.197
same,glycan array binding signal (z-score),[44],-0.175
same,glycan array binding signal (z-score),[45],-0.154
